{"source": "the supplement of paper PMC8728848", "binders": {"B1": {"name": "CVNH3T (Magnaporthe grisea) (protein)", "chain": "GSHIGPYGNYAGNFSGSSRDICLDGARLRAECRRGDGGYSTSVIDLNRYLSNDNGHFRWVSGGGGGGGTATVTVQQGDTLRDIGRRFDCDFHEIARRNNIQNEDLIYPGQVLQVPTKGGSGGGAGNFWDSARDVRLVDGGKVLEAELRYSGGWNRSRIYLDEHIGNRNGELIHC"}}, "assay_in_all_cases": "glycan array binding signal (z-score within array); higher = stronger binding", "conditions_in_all_cases": "glycan notation: IUPAC condensed, linker removed", "key": {"[1]": {"biological_target": "Fuc(a1-2)Gal", "in_short": "(§1)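 Glycan array data came from 3228 arrays in the Consortium for Functional Glycomics database, and only arrays with an available protein sequence were kept. Glycan names were put into IUPAC-condensed notation, and columns mapping to the same glycan were averaged. The binding signal is a within-array Z-score, averaged across arrays of one protein sequence run at different concentrations or buffers and across linkers. A negative Z-score can be read as non-binding.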"}, "[2]": {"biological_target": "Fuc(a1-2)Gal(b1-3)GalNAc", "in_short": "as §1"}, "[3]": {"biological_target": "Fuc(a1-2)Gal(b1-3)GalNAc(b1-3)Gal", "in_short": "as §1"}, "[4]": {"biological_target": "Fuc(a1-2)Gal(b1-3)GalNAc(b1-3)Gal(a1-4)Gal(b1-4)Glc", "in_short": "as §1"}, "[5]": {"biological_target": "Fuc(a1-2)Gal(b1-3)GalNAc(b1-3)Gal(b1-4)Glc", "in_short": "as §1"}, "[6]": {"biological_target": "Fuc(a1-2)Gal(b1-3)GalNAc(b1-4)[Neu5Ac(a2-3)]Gal(b1-4)Glc", "in_short": "as §1"}, "[7]": {"biological_target": "Fuc(a1-2)Gal(b1-3)[Fuc(a1-4)]GlcNAc", "in_short": "as §1"}, "[8]": {"biological_target": "Fuc(a1-2)Gal(b1-4)Glc", "in_short": "as §1"}, "[9]": {"biological_target": "Fuc(a1-2)Gal(b1-4)GlcNAc", "in_short": "as §1"}, "[10]": {"biological_target": "Fuc(a1-2)Gal(b1-4)GlcNAc(b1-3)Gal(b1-4)GlcNAc", "in_short": "as §1"}, "[11]": {"biological_target": "Fuc(a1-2)Gal(b1-4)GlcNAc(b1-3)Gal(b1-4)GlcNAc(b1-3)Gal(b1-4)GlcNAc", "in_short": "as §1"}, "[12]": {"biological_target": "Fuc(a1-2)Gal(b1-4)[Fuc(a1-3)]GalNAc(b1-3)Gal(b1-4)[Fuc(a1-3)]GlcNAc", "in_short": "as §1"}, "[13]": {"biological_target": "Fuc(a1-2)Gal(b1-4)[Fuc(a1-3)]GalNAc(b1-3)Gal(b1-4)[Fuc(a1-3)]GlcNAc(b1-3)Gal(b1-4)[Fuc(a1-3)]GalNAc", "in_short": "as §1"}, "[14]": {"biological_target": "Fuc(a1-2)Gal(b1-4)[Fuc(a1-3)]GlcNAc", "in_short": "as §1"}, "[15]": {"biological_target": "Fuc(a1-2)GlcNAc", "in_short": "as §1"}, "[16]": {"biological_target": "Fuc(a1-2)[Gal(a1-3)]Gal", "in_short": "as §1"}, "[17]": {"biological_target": "Fuc(a1-2)[Gal(a1-3)]Gal(b1-3)GlcNAc", "in_short": "as §1"}, "[18]": {"biological_target": "Fuc(a1-2)[Gal(a1-3)]Gal(b1-4)Glc", "in_short": "as §1"}, "[19]": {"biological_target": "Fuc(a1-2)[Gal(a1-3)]Gal(b1-4)GlcNAc", "in_short": "as §1"}, "[20]": {"biological_target": "Fuc(a1-2)[Gal(a1-3)]Gal(b1-4)[Fuc(a1-3)]GlcNAc", "in_short": "as §1"}, "[21]": {"biological_target": "Fuc(a1-2)[Gal(a1-4)]Gal(b1-4)GalNAc", "in_short": "as §1"}, "[22]": {"biological_target": "Fuc(a1-2)[GalNAc(a1-3)]Gal", "in_short": "as §1"}, "[23]": {"biological_target": "Fuc(a1-2)[GalNAc(a1-3)]Gal(b1-3)GlcNAc", "in_short": "as §1"}, "[24]": {"biological_target": "Fuc(a1-2)[GalNAc(a1-3)]Gal(b1-4)Glc", "in_short": "as §1"}, "[25]": {"biological_target": "Fuc(a1-2)[GalNAc(a1-3)]Gal(b1-4)GlcNAc", "in_short": "as §1"}, "[26]": {"biological_target": "Fuc(a1-2)[GalNAc(a1-3)]Gal(b1-4)[Fuc(a1-3)]GlcNAc", "in_short": "as §1"}, "[27]": {"biological_target": "Fuc(a1-2)[GalNAc(a1-4)]Gal(b1-4)GlcNAc", "in_short": "as §1"}, "[28]": {"biological_target": "Fuc(a1-3)GlcNAc", "in_short": "as §1"}, "[29]": {"biological_target": "Fuc(a1-3)[Gal(b1-4)]GlcNAc", "in_short": "as §1"}, "[30]": {"biological_target": "Fuc(a1-3)[Gal(b1-4)]GlcNAc(b1-4)Gal(b1-4)[Fuc(a1-3)]GlcNAc", "in_short": "as §1"}, "[31]": {"biological_target": "Fuc(a1-3)[Gal(b1-4)]GlcNAc(b1-4)Gal(b1-4)[Fuc(a1-3)]GlcNAc(b1-4)Gal(b1-4)[Fuc(a1-3)]GlcNAc", "in_short": "as §1"}, "[32]": {"biological_target": "Fuc(a1-3)[Gal3S(b1-4)]GlcNAc", "in_short": "as §1"}, "[33]": {"biological_target": "Fuc(a1-3)[GalNAc(b1-4)]Gal(b1-4)GlcNAc", "in_short": "as §1"}, "[34]": {"biological_target": "Fuc(a1-4)GlcNAc", "in_short": "as §1"}, "[35]": {"biological_target": "Fuc(b1-3)GlcNAc", "in_short": "as §1"}, "[36]": {"biological_target": "Gal(a1-2)Gal", "in_short": "as §1"}, "[37]": {"biological_target": "Gal(a1-3)Gal", "in_short": "as §1"}, "[38]": {"biological_target": "Gal(a1-3)Gal(b1-3)Glc", "in_short": "as §1"}, "[39]": {"biological_target": "Gal(a1-3)Gal(b1-3)GlcNAc", "in_short": "as §1"}, "[40]": {"biological_target": "Gal(a1-3)Gal(b1-4)GlcNAc", "in_short": "as §1"}, "[41]": {"biological_target": "Gal(a1-3)Gal(b1-4)[Fuc(a1-3)]GalNAc", "in_short": "as §1"}, "[42]": {"biological_target": "Gal(a1-3)GlcNAc", "in_short": "as §1"}, "[43]": {"biological_target": "Gal(a1-3)[Gal(a1-4)]Gal(b1-4)GlcNAc", "in_short": "as §1"}, "[44]": {"biological_target": "Gal(a1-4)Gal(b1-4)Gal", "in_short": "as §1"}, "[45]": {"biological_target": "Gal(a1-4)Gal(b1-4)GalNAc", "in_short": "as §1"}}, "note": "Some of the results follow."}
{"binder": "B1", "values": [{"measurement": "glycan array binding signal (z-score)", "setting": "[1]", "value": -0.223}, {"measurement": "glycan array binding signal (z-score)", "setting": "[2]", "value": -0.142}, {"measurement": "glycan array binding signal (z-score)", "setting": "[3]", "value": -0.216}, {"measurement": "glycan array binding signal (z-score)", "setting": "[4]", "value": 4.94}, {"measurement": "glycan array binding signal (z-score)", "setting": "[5]", "value": -0.17}, {"measurement": "glycan array binding signal (z-score)", "setting": "[6]", "value": -0.228}, {"measurement": "glycan array binding signal (z-score)", "setting": "[7]", "value": -0.225}, {"measurement": "glycan array binding signal (z-score)", "setting": "[8]", "value": -0.233}, {"measurement": "glycan array binding signal (z-score)", "setting": "[9]", "value": -0.234}, {"measurement": "glycan array binding signal (z-score)", "setting": "[10]", "value": -0.228}, {"measurement": "glycan array binding signal (z-score)", "setting": "[11]", "value": -0.212}, {"measurement": "glycan array binding signal (z-score)", "setting": "[12]", "value": -0.19}, {"measurement": "glycan array binding signal (z-score)", "setting": "[13]", "value": -0.218}, {"measurement": "glycan array binding signal (z-score)", "setting": "[14]", "value": -0.196}, {"measurement": "glycan array binding signal (z-score)", "setting": "[15]", "value": -0.216}, {"measurement": "glycan array binding signal (z-score)", "setting": "[16]", "value": -0.217}, {"measurement": "glycan array binding signal (z-score)", "setting": "[17]", "value": 0.849}, {"measurement": "glycan array binding signal (z-score)", "setting": "[18]", "value": -0.215}, {"measurement": "glycan array binding signal (z-score)", "setting": "[19]", "value": -0.23}, {"measurement": "glycan array binding signal (z-score)", "setting": "[20]", "value": -0.226}, {"measurement": "glycan array binding signal (z-score)", "setting": "[21]", "value": -0.199}, {"measurement": "glycan array binding signal (z-score)", "setting": "[22]", "value": -0.138}, {"measurement": "glycan array binding signal (z-score)", "setting": "[23]", "value": -0.07}, {"measurement": "glycan array binding signal (z-score)", "setting": "[24]", "value": 0.015}, {"measurement": "glycan array binding signal (z-score)", "setting": "[25]", "value": -0.053}, {"measurement": "glycan array binding signal (z-score)", "setting": "[26]", "value": -0.058}, {"measurement": "glycan array binding signal (z-score)", "setting": "[27]", "value": -0.232}, {"measurement": "glycan array binding signal (z-score)", "setting": "[28]", "value": -0.235}, {"measurement": "glycan array binding signal (z-score)", "setting": "[29]", "value": -0.108}, {"measurement": "glycan array binding signal (z-score)", "setting": "[30]", "value": -0.213}, {"measurement": "glycan array binding signal (z-score)", "setting": "[31]", "value": -0.235}, {"measurement": "glycan array binding signal (z-score)", "setting": "[32]", "value": -0.228}, {"measurement": "glycan array binding signal (z-score)", "setting": "[33]", "value": -0.226}, {"measurement": "glycan array binding signal (z-score)", "setting": "[34]", "value": -0.226}, {"measurement": "glycan array binding signal (z-score)", "setting": "[35]", "value": -0.223}, {"measurement": "glycan array binding signal (z-score)", "setting": "[36]", "value": -0.22}, {"measurement": "glycan array binding signal (z-score)", "setting": "[37]", "value": -0.222}, {"measurement": "glycan array binding signal (z-score)", "setting": "[38]", "value": -0.221}, {"measurement": "glycan array binding signal (z-score)", "setting": "[39]", "value": -0.224}, {"measurement": "glycan array binding signal (z-score)", "setting": "[40]", "value": -0.193}, {"measurement": "glycan array binding signal (z-score)", "setting": "[41]", "value": -0.217}, {"measurement": "glycan array binding signal (z-score)", "setting": "[42]", "value": -0.222}, {"measurement": "glycan array binding signal (z-score)", "setting": "[43]", "value": -0.206}, {"measurement": "glycan array binding signal (z-score)", "setting": "[44]", "value": 2.07}, {"measurement": "glycan array binding signal (z-score)", "setting": "[45]", "value": 5.47}]}
